This note sets out measurements from the supplement of paper PMC4466236.

In all, about 33,000 sequences were measured (“E-score (dimensionless, -0.5 to 0.5)”: median about -0.058, highest 2% from about 0.35 on). This is one part of the list.

This experiment deals with MvaT. In words: PBM 8-mer E-score (mean of HK and ME arrays) (E-score (dimensionless, -0.5 to 0.5)); higher = stronger relative binding preference; most listed sequences are background and not binding sites. In a few lines: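 Full-length P. aeruginosa MvaT, with glutathione S-transferase fused to its N-terminus (cloned into pTH6838 by isothermal assembly), was tested by protein binding microarray using a previously described protocol. Two universal double-stranded 60-mer arrays (ME and HK) were used, each with a constant 25-mer primer region and a variable 35-mer region covering all 8-mers. The rank-based 8-mer E-score (-0.5 to 0.5) is the mean of the two arrays, parsed with a custom Python script.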
For CCGACGCG, the “PBM 8-mer E-score” value was -0.268.
The result for CCGTGCCA reads -0.177.
As for CACGAAAC, the “PBM 8-mer E-score” value was -0.0556.
Take GGCAAAAC: the “PBM 8-mer E-score” value was -0.049.
The result for AGTTGGTC reads 0.0575; that for ATTCGAAA, 0.195.
GCCGGCAC: the “PBM 8-mer E-score” value was -0.0824.
Turning to GGATGCAC, the “PBM 8-mer E-score” value was -0.17.
As for GGGGCCAC, the “PBM 8-mer E-score” value was -0.233.
Turning to CAAATCGC, the “PBM 8-mer E-score” value was found to be 0.0696.
For GAGGGACC, the “PBM 8-mer E-score” value is -0.31.
For CTTAAGTC, the “PBM 8-mer E-score” value stood at 0.00473.
The result for ACGCTCGG reads -0.166; that for AACGCCCT, -0.0945; that for CGGAGGAG, -0.364.
The value for CAACAGCG was -0.0867; that for CCGAACCG was -0.193; that for AGCGACAT was -0.0824.
The value for ATTATACA was 0.388; that for CAAGGAGA was -0.135.
AAAACGAT: the “PBM 8-mer E-score” value is 0.0424.
In the case of CTTGCGGA, the “PBM 8-mer E-score” value is -0.0364.
The value for ATGTGTGC was -0.0274; that for CATAACGA was 0.141; that for TAGTGCAA was 0.114.
The value for CGCAATAA was 0.241; that for GGACCGAA was -0.195; that for AAGGGAAC was -0.113.
The result for ACGGCCGT reads -0.184.
Regarding ATCTAAGA, the “PBM 8-mer E-score” value is -0.0492.
The result for ACGTAACA reads 0.201.
The value for ATTACAGG was 0.0088; that for ATGACAGA was -0.126.
The value for GTTAGCCA was -0.043.
AACTACGT: the “PBM 8-mer E-score” value is 0.0749.
With ACATATAA, the “PBM 8-mer E-score” value came to 0.446.
The value for CGATTGGA was -0.184; that for GTCGTCAA was -0.0669; that for GAATATAC was 0.298.
The result for AATCTCGT reads -0.019.
Take CCTCACAA: the “PBM 8-mer E-score” value is -0.0216.
Consider TAAAAATA, for which the “PBM 8-mer E-score” value was determined as 0.3.
The value for ATGAAGTA was 0.0322.
As for AGTTCAGC, the “PBM 8-mer E-score” value stood at 0.047.
On to AACAACAG, for which the “PBM 8-mer E-score” value is 0.0444.
In the case of CAAGGACA, the “PBM 8-mer E-score” value is -0.0273.
The value for ATATCTTG was 0.292.
Regarding ACTATAAA, the “PBM 8-mer E-score” value came out at 0.316.
The result for GGGCACTA reads -0.278.
The result for AATCGACG reads -0.0214; that for CGTATTGA, 0.0844; that for AAGAATGC, 0.0322.
The result for ACCCTCCG reads -0.234.
Regarding ACCGGACG, the “PBM 8-mer E-score” value is -0.224.
The value for CTGGTAGC was -0.329.
Turning to CATAGTCG, the “PBM 8-mer E-score” value is -0.138.
As to CGTCAAAA, the “PBM 8-mer E-score” value was 0.119.
The value for ATATGGAA was 0.278.
On to GTGGTAAC, for which the “PBM 8-mer E-score” value was -0.165.
Turning to AGCGCTTG, the “PBM 8-mer E-score” value is -0.127.
The result for CGCGCCCA reads -0.221; that for TAACTTAA, 0.406.
The result for TATCAACA reads 0.191; that for ACGGCTAA, -0.0612; that for GCAGTCGA, -0.223.
Turning to GGCGGTGA, the “PBM 8-mer E-score” value is -0.0826.
Regarding ACCTTTAC, the “PBM 8-mer E-score” value was 0.074.
Take CACGAGTG: the “PBM 8-mer E-score” value was -0.137.
The value for GAAATAAC was 0.3.
The value for AACAGTGC was 0.0807; that for GAGACAAA was -0.0765.
CTTAATAA: the “PBM 8-mer E-score” value came out at 0.385.
On to ACAGAAAG, for which the “PBM 8-mer E-score” value is -0.0384.
The value for ATATGCAT was 0.257.
As to CAGGTCCC, the “PBM 8-mer E-score” value was -0.296.
The result for AGCACATG reads -0.0899; that for GTATAGTA, 0.233; that for CTCAAAGA, 0.0505.
The result for AGAGTGTC reads -0.116.
The result for ATACCTAC reads 0.122.
Regarding CCAGCTCC, the “PBM 8-mer E-score” value is -0.306.
As for GAATTGCA, the “PBM 8-mer E-score” value was 0.0683.
The result for AGACTGCG reads -0.139.
The value for GATGACCC was -0.158.
Consider ACTCGAAC, for which the “PBM 8-mer E-score” value was 0.0239.
The value for AAGTTTAC was 0.157.
